# The source gives no read counts; variants with many changes may rest on few reads.
# B1: CPEB3 Ribozyme (parent)
# chain: UAACAGGGGGCCACAGCAGAAGCGUUCACGUCGCAGCCCCUGUCAGAUUCUGGUGAAUCUGCGAAUUCUGCUGUAUAUCUC
# Variants of: B1
# Assay: self-cleavage, relative activity (ratio to wild type); higher = more cleavage; in vitro, sequencing
# Method in brief: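 Barcoded CPEB3 ribozyme mutants, produced by rounds of error-prone PCR, self-cleaved while being transcribed with T7 RNA polymerase for 5 hours at 37°C and during a subsequent 15 min DNase I step before EDTA was added. Sequencing of template-switched cDNA on Illumina gave cleaved and total reads, and DNA sequencing assigned barcodes to variants. Each variant's relative activity is its cleaved/total read fraction divided by the unmutated ribozyme's fraction, averaged across three batches. A variant needed a minimum of 5 reads.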
row,Variant,self-cleavage
1,G16C A21G U51C U72A,0.06
2,A15U U74A U80A,1.17
3,G16C A28U A45G U51C U78C,0.07
4,G16C G19C U25C A35G,0.21
5,G16A G30U A57G,0.27
6,A15U U66C G73U,0.19
7,G16A A35G U54C U60A,0.1
8,A15U U54C U78C,0.27
9,A15U U58C A65G,0.18
10,G16C A35G A47U U49A,0.11
11,G16C U31C U78C,0.22
12,G16A U26A A45C U58C U78C,0.19
13,A15U U54C U58C,0.25
14,G16A U54C U60C,0.18
15,G16A A47G U66A U80A,0.09
16,A15U U72A U74C,1.24
17,G16C U26A U41A U54C U78A U80G,0.05
18,G16A U67A U72C,0.48
19,A15U U60G G70A U80A,0.11
20,G16A A56U U60A U72G,0.07
21,A15U U51C U67A,0.33

row,Variant,self-cleavage
1,G16A U78C U80C,0.6
2,G16A A20C C29U,0.13
3,G16A U41A A45C U48C U80A,0.03
4,G16A C40A A47C,0.05
5,G16A G24A U80A,0.07
6,G16A C27U U54A A56U U78C,0.06
7,G16C U25A A45U U54A U67A,0.08
8,G16A A21U A45G U49C,0.18
9,G16A C39U U41A C71G,0.08
10,G16A A18U U31C C34U U72C,0.21
11,G16C U49C U58C U74C,0.18
12,G16A U25C A45G U72G U78C,0.21
13,A15U U67C U72C,0.32
14,G16C C17U A47G A64U A75G,0.14
15,G16C G24U U26C G52C A75U,0.17
16,G16C C27U U31C A35G U48C U80C,0.24
17,G16A A18G U31A U41C A45U A65G,0.12
18,G16A U51A U58C,0.16
19,G16A U26A C34U,0.06
20,G16A U43A C62A U76A,0.13
21,A15U U51C U60C U67C U76A,0.75

row,Variant,self-cleavage
1,G16C A28U C34U U43G U66C C71U U76C,0.07
2,G16C A57G C62U,0.15
3,G16C G24C U78G,0.05
4,G16A A18G U25A G33A,0.04
5,G16A U31C U80A,0.16
6,G16C A20U A56G U78C,0.13
7,G16A A28U G33A A45U,0.1
8,G16A U41C U80C,0.79
9,A15U U54C A56G,0.42
10,G16A G36C U74A U80A,0.03
11,G16A C39A U76C,0.31
12,G16A A28G U43C U58A G61A U69A,0.05
13,A15U U58C A64U U72C U78C,0
14,A15U U69A U76C,0.3
15,G16A G52C G61A G73A,0.26
16,G16A U25C U26A,0.3
17,G16A A28G C40U U78C,0.14
18,G16A U25A U43A,0.06
19,G16A U43C U60G,0.19
20,G16A U26C A28C A64G U74C,0.06
21,A15U U51G A64G C68A U72A,0.17

row,Variant,self-cleavage
1,A15U U66C U69C,0.26
2,G16A A18U U51C U54C,0.27
3,G16C U49C A64G,0.13
4,G16A U51C U78C,0.34
5,G16C U31A A56U,0.19
6,G16A U49C U51A U60C,0.13
7,G16A G36C G63A U67C U69C C79A,0.05
8,G16A U74A U80C,0.67
9,G16A A45U U76C,0.51
10,A15U U60C U78G,0.14
11,G16C U25A C40U U48C,0.06
12,G16A U41C G52A U69G,0.23
13,G16A U26C U41C U51A A57U U60G,0.11
14,G16C U25C C62U U69C,0.05
15,A15U U54C U72C U74C,1.09
16,G16A U25C U41G U54C U76C,0.03
17,G16A U25A G33A U60C,0.13
18,G16A U26C G33A U58G U72G U78C,0.11
19,A15U U74C U76C,0.26
20,G16A C17G U66C U76C U80A,0.14

# From the RNAGym collection of RNA variant scans (doi:10.1093/nar/gkz1192)
